Experimental data as given in the supplement of paper PMC4967469.

How the values were obtained:
Experiment in all cases: Viability of human cancer cell lines after 72 h of drug (GDSC screen)
[1] = compound: CC(C)N(CCCNC(=O)Nc1ccc(C(C)(C)C)cc1)C[C@H]1O[C@@H](n2cc(Br)c3c(N)ncnc32)[C@H](O)[C@@H]1O [SGC0946]; conditions: top dose 0.5 µM; top dose inferred
Procedure: (§1)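 Human cancer cell lines in 384-well plates, medium with 10% serum, drug for 72 h over a 256-fold dose range (nine 2-fold or five 4-fold steps up to the top dose). Adherent lines were fixed and stained with the nucleic acid dye Syto60, suspension lines read with resazurin; signal relative to control wells, capped at 0 and 100%. One two-parameter sigmoid per drug and line, fitted in a mixed model over all curves with the slope shared within a line.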

[2] = compound: CCC/C=C/C=C/C(=O)O[C@H]1/C(=C/C(=O)OC)C[C@H]2C[C@H]([C@@H](C)O)OC(=O)C[C@H](O)C[C@@H]3C[C@H](OC(C)=O)C(C)(C)[C@](O)(C[C@@H]4C/C(=C/C(=O)OC)C[C@H](/C=C/C(C)(C)[C@]1(O)O2)O4)O3 [Bryostatin 1]; conditions: top dose 0.008 µM; top dose inferred
Procedure: as §1

[3] = compound: COc1ccc(COc2ccc(Cc3cnc(N)nc3N)cc2OC)cc1 [GW-2580]; conditions: top dose 20 µM; top dose inferred
Procedure: as §1

[4] = compound: Nc1cccc2c1CN(C1CCC(=O)NC1=O)C2=O [Lenalidomide]; conditions: top dose 5 µM; top dose inferred
Procedure: as §1

Row | Cell Line | AUC [1] | IC50 [1] [nM] | AUC [2] | IC50 [2] [nM] | AUC [3] | IC50 [3] [nM] | AUC [4] | IC50 [4] [nM]
1 | EFO-21 (ovary, adherent) | 0.977 | > 500 | 0.979 | > 8 | 0.978 | > 20000 | 0.98 | > 5000
2 | EFO-27 (ovary, adherent) | 0.978 | > 500 | 0.974 | > 8 | 0.975 | > 20000 | 0.967 | > 5000
3 | EGI-1 (biliary tract, adherent) | 0.98 | > 500 | 0.964 | > 8 | 0.975 | > 20000 | 0.953 | > 5000
4 | EJM (lymphoid neoplasm, semi-adherent) | 0.992 | > 500 | 0.992 | > 8 | 0.992 | > 20000 | 0.992 | > 5000
5 | EKVX (lung adenocarcinoma, adherent) | 0.95 | > 500 | 0.833 | > 8 | 0.966 | > 20000 | 0.926 | > 5000
6 | EN (endometrium, adherent) | 0.982 | > 500 | 0.976 | > 8 | 0.977 | > 20000 | 0.976 | > 5000
7 | EPLC-272H (lung squamous cell carcinoma, adherent) | 0.979 | > 500 | 0.979 | > 8 | 0.956 | > 20000 | 0.983 | > 5000
8 | ES6 (Ewing sarcoma, adherent) | 0.975 | > 500 | 0.948 | > 8 | 0.971 | > 20000 | 0.981 | > 5000
9 | ES-2 (ovary, adherent) | 0.99 | > 500 | 0.987 | > 8 | 0.987 | > 20000 | 0.988 | > 5000
10 | ESS-1 (endometrium, adherent) | 0.987 | > 500 | 0.978 | > 8 | 0.989 | > 20000 | 0.989 | > 5000
11 | ETK-1 (biliary tract, adherent) | 0.979 | > 500 | 0.979 | > 8 | 0.983 | > 20000 | 0.972 | > 5000
12 | EVSA-T (breast, adherent) | 0.99 | > 500 | 0.989 | > 8 | 0.97 | > 20000 | 0.991 | > 5000
13 | EW-1 (Ewing sarcoma, semi-adherent) | 0.982 | > 500 | 0.985 | > 8 | 0.988 | > 20000 | 0.989 | > 5000
14 | EW-7 (Ewing sarcoma, semi-adherent) | 0.988 | > 500 | 0.989 | > 8 | 0.975 | > 20000 | 0.988 | > 5000
15 | FTC-133 (thyroid, adherent) | 0.985 | > 500 | 0.925 | > 8 | 0.98 | > 20000 | 0.983 | > 5000
16 | FU97 (stomach, adherent) | 0.985 | > 500 | 0.971 | > 8 | 0.971 | > 20000 | 0.975 | > 5000
17 | FU-OV-1 (ovary, adherent) | 0.978 | > 500 | 0.982 | > 8 | 0.982 | > 20000 | 0.978 | > 5000
18 | G-292 Clone A141B1 (osteosarcoma, adherent) | 0.968 | > 500 | 0.954 | > 8 | 0.976 | > 20000 | 0.95 | > 5000
19 | G-361 (melanoma, adherent) | 0.982 | > 500 | 0.887 | > 8 | 0.972 | > 20000 | 0.988 | > 5000
20 | G-401 (kidney, adherent) | 0.982 | > 500 | 0.933 | > 8 | 0.979 | > 20000 | 0.984 | > 5000
21 | G-402 (soft tissue, adherent) | 0.975 | > 500 | 0.964 | > 8 | 0.978 | > 20000 | 0.976 | > 5000
22 | G-MEL (melanoma, adherent) | 0.956 | > 500 | 0.892 | > 8 | 0.984 | > 20000 | 0.953 | > 5000
23 | GI-ME-N (neuroblastoma, adherent) | 0.973 | > 500 | 0.928 | > 8 | 0.973 | > 20000 | 0.973 | > 5000
24 | GT3TKB (stomach, adherent) | 0.989 | > 500 | 0.971 | > 8 | 0.986 | > 20000 | 0.99 | > 5000
25 | H4 (glioma, adherent) | 0.985 | > 500 | 0.857 | 6.39 | 0.987 | > 20000 | 0.982 | > 5000
26 | H290 (mesothelioma, adherent) | 0.988 | > 500 | 0.989 | > 8 | 0.872 | 16300 | 0.989 | > 5000
27 | H2369 (mesothelioma, adherent) | 0.982 | > 500 | 0.983 | > 8 | 0.982 | > 20000 | 0.984 | > 5000
28 | H2373 (mesothelioma, adherent) | 0.981 | > 500 | 0.967 | > 8 | 0.96 | > 20000 | 0.983 | > 5000
29 | H2461 (mesothelioma, adherent) | 0.977 | > 500 | 0.92 | > 8 | 0.983 | > 20000 | 0.954 | > 5000
30 | H2595 (mesothelioma, adherent) | 0.956 | > 500 | 0.969 | > 8 | 0.981 | > 20000 | 0.95 | > 5000

IC50 is the fitted dose that halves viability relative to control wells, and lower means more sensitive; a fit beyond the top or the lowest dose is shown as a bound at that dose. AUC is the area under the same curve over the 256-fold range up to the top dose, as a fraction; values near 1 show little effect. Any top dose called inferred was derived from the fitted curves, not read from the paper.
